Drawing on the antibiotic and cytotoxicity screens of Wong et al. (2023), this text covers cytotoxicity call and growth inhibition call for eleven compounds.

The structures appear in SMILES notation. The list shows a part of the results.

The subject of one test is HepG2. In words: cytotoxicity call (relative viability < 0.9). The conditions noted are these: 10 µM.
Take `C[C@H]1CN([C@@H](C)CO)S(=O)(=O)c2ccc(C#CC3CC3)cc2O[C@H]1CN(C)Cc1ccccc1F`: the cytotoxicity call is “inactive”.
On the same count and under the same terms, for `C=CCN(CCCC)C(=O)[C@H]1N(C(C)(C)CO)C(=O)[C@H]2[C@H](C(=O)O)[C@@H]3C=C[C@@]21O3` the value was “inactive”.
On the same count and under the same terms, the entry for `CC(C)N1C(=O)C[C@@](C(=O)NCCN2CCOCC2)(c2ccc([N+](=O)[O-])cc2)[C@H]1c1ccc(CO)cc1` is “inactive”; for `CC(C)CC#Cc1ccc2c(c1)O[C@H](CN(C)C(=O)NC1CCCC1)[C@@H](C)CN([C@@H](C)CO)S2(=O)=O` it is “inactive”; for `OC[C@@H](O)[C@H]1O[C@H](c2ccccc2)OC[C@@H]1O` it is “inactive”.

The subject of the next test is S. aureus RN4220. In words: growth inhibition call (relative growth <= 0.2). The conditions noted are these: 50 µM.
With `O=C(C[C@H]1C[C@H]2c3cc(NS(=O)(=O)c4ccc(F)cc4)ccc3O[C@H]2[C@@H](CO)O1)NCc1ccccn1`, the growth inhibition call is “inactive”.
Still for that read-out and setting: for `C[C@@H]1CCCCO[C@H](CN(C)C)[C@H](C)CN([C@@H](C)CO)C(=O)c2cc(NC(=O)CCCN(C)C)ccc2O1` the value was “inactive”; for `Cc1ccc(S(=O)(=O)N(C)C[C@@H]2Oc3c(NS(C)(=O)=O)cccc3C(=O)N([C@H](C)CO)C[C@@H]2C)cc1`, “inactive”; for `C[C@@H]1CN([C@H](C)CO)C(=O)c2cccc(NC(=O)c3ccc(-c4nccs4)cc3)c2O[C@@H]1CN(C)S(=O)(=O)c1ccc(Cl)cc1`, “inactive”.
The same measure, in the same setting: the entry for `C[C@@H]1CCCCO[C@@H](CN(C)C(=O)Cc2ccccc2)[C@H](C)CN([C@H](C)CO)C(=O)c2cc(NS(=O)(=O)c3cccs3)ccc2O1` is “inactive”; for `Cl.O=C(COc1ccc(Cl)cc1)N1CCN(Cc2ccc3c(c2)OCO3)CC1` it is “inactive”.
